The values that follow come from paper PMC4336329 (PLoS ONE, 2015).

Screen size: about 310,000 compounds; about 14,000 (4.5%) showed an effect of 50% or more. The effect is printed as a negative number. Some of the results follow.
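Also: peak tail current of the secondary pulse compared with the same well before compound.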

The target in the test is human ether-à-go-go-related gene (hERG) potassium channel (human, UniProt Q12809). As to the kind of experiment: primary screen, population patch clamp on CHO cells stably expressing hERG.
human ether-à-go-go-related gene (hERG) potassium channel, sequence (Q12809 whole entry, looked up): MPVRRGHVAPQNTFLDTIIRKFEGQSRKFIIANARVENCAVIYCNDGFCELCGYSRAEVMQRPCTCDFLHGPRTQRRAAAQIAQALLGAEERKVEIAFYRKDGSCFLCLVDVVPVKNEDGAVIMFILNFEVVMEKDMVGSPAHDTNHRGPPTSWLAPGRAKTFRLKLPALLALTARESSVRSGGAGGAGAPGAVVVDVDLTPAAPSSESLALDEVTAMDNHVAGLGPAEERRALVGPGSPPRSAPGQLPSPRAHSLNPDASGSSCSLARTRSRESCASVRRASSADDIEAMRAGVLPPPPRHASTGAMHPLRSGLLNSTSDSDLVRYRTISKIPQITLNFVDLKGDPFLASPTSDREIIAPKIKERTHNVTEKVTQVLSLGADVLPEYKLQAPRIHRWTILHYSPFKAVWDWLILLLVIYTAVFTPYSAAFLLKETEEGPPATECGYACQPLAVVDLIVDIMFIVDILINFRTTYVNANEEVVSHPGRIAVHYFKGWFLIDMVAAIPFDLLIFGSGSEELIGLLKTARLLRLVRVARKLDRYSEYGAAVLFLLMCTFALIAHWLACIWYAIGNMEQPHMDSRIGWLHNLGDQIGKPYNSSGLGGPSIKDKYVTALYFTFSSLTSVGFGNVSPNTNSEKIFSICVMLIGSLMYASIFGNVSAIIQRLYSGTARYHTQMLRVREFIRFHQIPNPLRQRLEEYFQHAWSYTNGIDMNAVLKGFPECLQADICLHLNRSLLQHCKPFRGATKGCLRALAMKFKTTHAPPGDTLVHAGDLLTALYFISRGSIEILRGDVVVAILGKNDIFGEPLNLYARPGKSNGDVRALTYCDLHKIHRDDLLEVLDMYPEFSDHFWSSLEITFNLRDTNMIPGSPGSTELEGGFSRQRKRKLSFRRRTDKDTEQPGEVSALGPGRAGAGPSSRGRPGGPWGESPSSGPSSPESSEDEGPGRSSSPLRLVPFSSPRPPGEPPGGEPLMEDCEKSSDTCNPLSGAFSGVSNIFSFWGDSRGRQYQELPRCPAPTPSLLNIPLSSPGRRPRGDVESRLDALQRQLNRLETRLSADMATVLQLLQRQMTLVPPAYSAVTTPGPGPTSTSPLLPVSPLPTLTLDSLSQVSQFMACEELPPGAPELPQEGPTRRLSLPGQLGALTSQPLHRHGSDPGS
As to `Cc1cc(C)cc(N(CCC#N)C(=O)CSC2=Nc3ccccc3C3CC=NN23)c1` (stereo not drawn), the “hERG current change (%, negative = inhibition) at 10uM” value was 16.1%.

Regarding `CCCNC(=O)c1ccc(N2CCC3(CC2)CC(c2cccc(Br)c2)=NO3)c(NC(=O)c2ccccc2)c1`, the “hERG current change (%, negative = inhibition) at 10uM” value is listed as -0.8%.

As to `CCOc1ccccc1CN1CCN(CCCn2cccn2)CC1CCO` (stereo not drawn), the “hERG current change (%, negative = inhibition) at 10uM” value is listed as -57.4%.

Regarding `Cn1c(CNC(=O)OC(C)(C)C)nnc1SCc1c(Cl)cccc1Cl`, the “hERG current change (%, negative = inhibition) at 10uM” value is 2.14%.

Consider `COc1ccc(CN2CCN(CC(=O)Nc3ccccc3C(=O)NC3CC3)CC2)cc1F`, for which the “hERG current change (%, negative = inhibition) at 10uM” value was -91.3%.

In the case of `Cc1nc2nc(-c3ccccc3)[nH]n2c(=O)c1Cc1ccccc1`, the “hERG current change (%, negative = inhibition) at 10uM” value is listed as -8.48%.

`CCCC(NCC(O)COc1ccc(-c2ccccc2)cc1)c1ccccc1` (stereo not drawn): the “hERG current change (%, negative = inhibition) at 10uM” value worked out at 10.3%.

Take `CC(C)COC(=O)c1ccc(NC(=O)C2C3C=CC(C3)C2C(=O)O)cc1` (stereo not drawn): the “hERG current change (%, negative = inhibition) at 10uM” value was -3.17%.

Regarding `O=C(Nc1ccccc1)N1C(=O)C2(OCCO2)c2ccccc21`, the “hERG current change (%, negative = inhibition) at 10uM” value was determined as 26.3%.

Consider `CC(C)(C)C(=O)Nc1ccc(-c2nnc3n2CCCCC3)cc1`, for which the “hERG current change (%, negative = inhibition) at 10uM” value is 7.31%.

In the case of `COc1ccc(OC)c(-c2cc(C(=O)N/N=C/c3ccc(F)cc3)c3ccccc3n2)c1`, the “hERG current change (%, negative = inhibition) at 10uM” value is recorded as 1.22%.

On to `O=S(=O)(c1ccc(-c2cnc(C3CC3)o2)cc1)N1CCN(c2ccccc2)CC1`, for which the “hERG current change (%, negative = inhibition) at 10uM” value turned out to be 13.1%.

On to `CC(C)N(Cc1ccccc1)C(=S)Nc1ccc(OC(F)F)cc1`, for which the “hERG current change (%, negative = inhibition) at 10uM” value is -56.7%.

`CC1(c2ccccc2)NC(=O)N(CC(=O)N2CCN(S(=O)(=O)c3cccc([N+](=O)[O-])c3)CC2)C1=O` (stereo not drawn): the “hERG current change (%, negative = inhibition) at 10uM” value is 5.57%.

Take `CC(=O)Nc1nnc(C)s1`: the “hERG current change (%, negative = inhibition) at 10uM” value was 11.9%.

`COc1cc([N+](=O)[O-])ccc1-c1ccc(/C=N\n2cnnc2)o1`: the “hERG current change (%, negative = inhibition) at 10uM” value is listed as 4.76%.

For `CC(=O)Nc1ccc(S(=O)(=O)N2CCN(S(=O)(=O)N3CCOCC3)CC2)cc1`, the “hERG current change (%, negative = inhibition) at 10uM” value is 8.58%.

In the case of `Cc1nn(CC(=O)N(C)C2(C#N)CCCCC2)c(C)c1[N+](=O)[O-]`, the “hERG current change (%, negative = inhibition) at 10uM” value is recorded as -6.06%.

`O=C(COC(=O)c1ccccn1)Nc1ccccc1OC(F)F`: the “hERG current change (%, negative = inhibition) at 10uM” value came to 6.71%.

Consider `CS(=O)(=O)N(CC(=O)Nc1cccc(F)c1)c1cccc([N+](=O)[O-])c1`, for which the “hERG current change (%, negative = inhibition) at 10uM” value was -33.8%.

As to `O=C(c1ccccc1)c1ccc(N2CCCC2)cc1`, the “hERG current change (%, negative = inhibition) at 10uM” value is reported as -4.18%.

As to `C=C1CCC[C@]2(C)C[C@H]3OC(=O)C(CNC(C)(CO)CO)[C@H]3CC12` (stereo partly drawn), the “hERG current change (%, negative = inhibition) at 10uM” value was determined as 7.4%.

On to `C#CCNc1nc(C)nc2c1nnn2Cc1ccccc1F`, for which the “hERG current change (%, negative = inhibition) at 10uM” value was found to be 10.6%.

As to `c1ccc(N2CCN(c3nc4cc5c(cc4s3)OCCO5)CC2)cc1`, the “hERG current change (%, negative = inhibition) at 10uM” value is listed as -12.7%.

On to `Nn1c(SCC(=O)N2CCOCC2)nnc1-c1ccc(Cl)cc1Cl`, for which the “hERG current change (%, negative = inhibition) at 10uM” value is given as 6.65%.

For the compound `COc1cccc(CN2CCN(C(=O)c3cc(-c4cccnc4)nc4ccc(C)cc34)CC2)c1`, the “hERG current change (%, negative = inhibition) at 10uM” value is on record as -12.7%.

Take `O=C(CSc1ccsc1[N+](=O)[O-])N1CCCCCC1`: the “hERG current change (%, negative = inhibition) at 10uM” value was 1.2%.

Consider `CCC(=NCCOc1ccc(Cl)cc1)c1c(O)n(C)c(=O)n(C)c1=O`, for which the “hERG current change (%, negative = inhibition) at 10uM” value was -29.8%.

On to `COc1ccccc1N1CCN(C2=CC(=O)CCC2)CC1`, for which the “hERG current change (%, negative = inhibition) at 10uM” value was found to be 4.72%.

On to `Cn1c(NCCCN2CCOCC2)nc2c1c(=O)n(Cc1ccc(Cl)c(Cl)c1)c(=O)n2C`, for which the “hERG current change (%, negative = inhibition) at 10uM” value is on record as -46%.

As to `O=C(Nc1nccs1)c1cc2c(s1)-c1ccccc1OC2`, the “hERG current change (%, negative = inhibition) at 10uM” value came out at 16.2%.

On to `O=C1OCCC1Sc1nnc(-c2ccccc2Br)n1Cc1ccccc1` (stereo not drawn), for which the “hERG current change (%, negative = inhibition) at 10uM” value was -24%.

Regarding `Cc1ccc(CSCC(=O)NCCc2ccccc2)cc1`, the “hERG current change (%, negative = inhibition) at 10uM” value is -3.13%.

As to `CCOC(=O)Nc1ccc2c(c1)ncn2C1CCCCC1`, the “hERG current change (%, negative = inhibition) at 10uM” value was -8.98%.

For `COc1ccc2cc(C(=O)N3CCN(c4cccc(C)c4C)CC3)[nH]c2c1`, the “hERG current change (%, negative = inhibition) at 10uM” value was -5.32%.

In the case of `COc1ccc(NCc2nnc(SCC(=O)Nc3cc(C)cc(C)c3)o2)cc1`, the “hERG current change (%, negative = inhibition) at 10uM” value was -0.894%.

Take `COc1ccc(/C(N)=N/OC(=O)CCCc2ccccc2)cc1`: the “hERG current change (%, negative = inhibition) at 10uM” value was -11.3%.

Take `COc1cccc(C(=O)Oc2c(Br)cc(Br)cc2/C=N/NC(=O)c2cc(C)[nH]n2)c1`: the “hERG current change (%, negative = inhibition) at 10uM” value is listed as 7.48%.

As to `Cl.NCCC(=O)N1c2ccccc2Sc2ccccc21`, the “hERG current change (%, negative = inhibition) at 10uM” value is given as -0.703%.

With `COc1cccc(NC(=O)c2ccccc2Br)c1`, the “hERG current change (%, negative = inhibition) at 10uM” value is recorded as 0.484%.

On to `Cc1nnc(SC(C)C(=O)NC2CCCCC2C)n1N` (stereo not drawn), for which the “hERG current change (%, negative = inhibition) at 10uM” value was 6.45%.

As for `CCC(Sc1nncn1C)C(=O)Nc1nnc(-c2ccc(Cl)cc2)s1` (stereo not drawn), the “hERG current change (%, negative = inhibition) at 10uM” value is given as 1.7%.

Turning to `CCOC(=O)N1CCN(C(=S)Nc2ccc(C)cc2)CC1`, the “hERG current change (%, negative = inhibition) at 10uM” value is 6.67%.

In the case of `COc1ccc(F)cc1Cn1nc(C(=O)O)c2ccccc2c1=O`, the “hERG current change (%, negative = inhibition) at 10uM” value was 15.1%.

In the case of `Cc1ccc(-n2ncc3c(N4CCCC(C)C4)ncnc32)c(C)c1` (stereo not drawn), the “hERG current change (%, negative = inhibition) at 10uM” value is reported as -8.2%.

Take `CCOC(=O)COc1ccc(C2CC(C)=NN2c2ccccc2)cc1` (stereo not drawn): the “hERG current change (%, negative = inhibition) at 10uM” value is -0.31%.

As for `CCCOC(=O)c1ccc(NC(=O)C(=O)NCC2CCCO2)cc1` (stereo not drawn), the “hERG current change (%, negative = inhibition) at 10uM” value amounted to 4.7%.

As to `CCOC(=O)c1sc(NC(=O)c2ccc(S(=O)(=O)N3CCCCCC3)cc2)nc1-c1ccccc1`, the “hERG current change (%, negative = inhibition) at 10uM” value is recorded as 24.5%.

Turning to `CCOc1ccc(NC(=S)NCc2ccc3c(c2)OCO3)cc1`, the “hERG current change (%, negative = inhibition) at 10uM” value was determined as 2.65%.

As for `COc1ccc(N2C(=O)CC(Sc3nc4ccccc4s3)C2=O)cc1` (stereo not drawn), the “hERG current change (%, negative = inhibition) at 10uM” value is 6.98%.

With `Cl.N=c1n(CCCOc2ccc(Br)cc2)c2ccccc2n1CC(N)=O`, the “hERG current change (%, negative = inhibition) at 10uM” value is -44.7%.

Regarding `COc1cc(/C=N/O)ccc1Oc1cnccn1`, the “hERG current change (%, negative = inhibition) at 10uM” value was 13.5%.

Take `CCc1nnc(NC(=O)CCC(=O)N2CCN(Cc3cc(Cl)ccc3OC)CC2)s1`: the “hERG current change (%, negative = inhibition) at 10uM” value was -3.48%.

In the case of `O=S1(=O)CCN2C(=N1)SC1=C2CCN(Cc2ccccc2)C1`, the “hERG current change (%, negative = inhibition) at 10uM” value is 17.2%.

Regarding `CCCc1nn2c(=O)cc(CSCC(=O)Nc3cccc(C)c3)nc2s1`, the “hERG current change (%, negative = inhibition) at 10uM” value came out at 0.26%.

Take `CC1CC(C)CN(C(=O)c2cn(C)c3ccc(S(=O)(=O)N(C)C)cc3c2=O)C1` (stereo not drawn): the “hERG current change (%, negative = inhibition) at 10uM” value is listed as -3.09%.

Consider `Cc1ccc(C)c(S(=O)(=O)N2CCN(c3nc(CN4CCOCC4)nc4sc(C)c(C)c34)CC2)c1`, for which the “hERG current change (%, negative = inhibition) at 10uM” value was -57.1%.
